Data as given in PubChem BioAssay AID1745853 (National Center for Advancing Translational Sciences (NCATS), 2022).
The other results are listed elsewhere or left out. The main result of the screen is listed elsewhere. These columns were measured beside it and carry no call. Bridge positions count the residues as written; N and C are the ends. Square brackets hold non-standard residues; d marks the D form. Peptide text beside a SMILES is read from it. NMeY = CN[CH](Cc1ccc(O)cc1)C(=O)O

How the values were obtained:
Experiment in all cases: Primary Screen for Target Class Profiling of Small Molecule Inhibitors of Methyltransferases
[1] = molecular target: Glycine N-methyltransferase (Homo sapiens) (UniProt Q14749); conditions: purified enzyme, MTase-Glo SAH luminescence; measured here: GNMT inhibition; at 40 µM; stronger effect = lower value
Summary of the method: (§1)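 Each enzyme was assayed with SAM and its substrate. SAH formation detected by MTase-Glo luminescence; single-point 40 uM screen[…].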

[2] = molecular target: Guanidinoacetate N-methyltransferase (Homo sapiens) (UniProt Q14353); conditions: purified enzyme, MTase-Glo SAH luminescence; measured here: GAMT inhibition; at 40 µM; stronger effect = lower value
Summary of the method: as §1

[3] = molecular target: Histamine N-methyltransferase (Homo sapiens) (UniProt P50135); conditions: purified enzyme, MTase-Glo SAH luminescence; measured here: HNMT inhibition; at 40 µM; stronger effect = lower value
Summary of the method: as §1

[4] = molecular target: Nicotinamide N-methyltransferase (Homo sapiens) (UniProt P40261); conditions: purified enzyme, MTase-Glo SAH luminescence; measured here: NNMT inhibition; at 40 µM; stronger effect = lower value
Summary of the method: as §1

[5] = molecular target: Phenylethanolamine N-methyltransferase (Homo sapiens) (UniProt P11086); conditions: purified enzyme, MTase-Glo SAH luminescence; measured here: PNMT inhibition; at 40 µM; stronger effect = lower value
Summary of the method: as §1
% is scaled to controls: 0 for no effect and ±100 for the full control effect.

O=C(CCCn1ccc2cc(S(=O)(=O)N3CCCC3)ccc21)NCc1cccs1
activity change, negative = inhibition [1]: -1.42%
activity change, negative = inhibition [2]: 0%
activity change, negative = inhibition [3]: -0.762%
activity change, negative = inhibition [4]: 3.82%
activity change, negative = inhibition [5]: 0.346%

C[C@@H]1O[C@@H](O[C@H]2[C@H](OC(=O)[C@]34CCC(C)(C)C[C@H]3C3=CCC5[C@@]6(C)C[C@H](O)[C@H](O[C@@H]7O[C@H](CO)[C@@H](O)[C@H](O)[C@H]7O)[C@](CO)(C(=O)O)C6CC[C@@]5(C)[C@]3(C)C[C@H]4O)OC[C@H](O)[C@@H]2O)[C@H](O)[C@H](O)[C@H]1O[C@@H]1OC[C@@H](O)[C@H](O[C@@H]2OC[C@](O)(CO)[C@H]2O)[C@H]1O (stereo partly drawn)
activity change, negative = inhibition [1]: 5.8%
activity change, negative = inhibition [2]: 0.163%
activity change, negative = inhibition [3]: 3.42%
activity change, negative = inhibition [4]: -13.9%
activity change, negative = inhibition [5]: 6.64%

O=C(c1ccccn1)N(Cc1cccs1)C1(C(=O)NC2CCCCC2)CCCCC1
activity change, negative = inhibition [1]: 4.12%
activity change, negative = inhibition [2]: 5.99%
activity change, negative = inhibition [3]: 9.59%
activity change, negative = inhibition [4]: -7.94%
activity change, negative = inhibition [5]: 4.31%

COc1cc(CCCO)ccc1O[C@@H]1O[C@H](CO)[C@@H](O)[C@H](O)[C@H]1O
activity change, negative = inhibition [1]: 0.13%
activity change, negative = inhibition [2]: 1.03%
activity change, negative = inhibition [3]: 9.1%
activity change, negative = inhibition [4]: -11.7%
activity change, negative = inhibition [5]: 4.03%

CCC(C)C1NC(=O)C2CCCN2C(=O)C(NC(C)=O)C(C)OC(=O)C(Cc2ccc(OC)cc2)N(C)C(=O)C2CCCN2C(=O)C(C(C)C)NC1=O (stereo not drawn) (Ac-TPIVP[NMeY](Me); ester 1-C; configuration not given here)
activity change, negative = inhibition [1]: -4.01%
activity change, negative = inhibition [2]: -11.9%
activity change, negative = inhibition [3]: 5.54%
activity change, negative = inhibition [4]: -26.4%
activity change, negative = inhibition [5]: -10.8%

O=C(CCc1nnc2n(Cc3ccccc3Cl)c(=O)c3ccccc3n12)N1CCN(c2ncccn2)CC1
activity change, negative = inhibition [1]: -3.4%
activity change, negative = inhibition [2]: 1.43%
activity change, negative = inhibition [3]: 10.6%
activity change, negative = inhibition [4]: 4.71%
activity change, negative = inhibition [5]: 1.19%

CNC(=O)C1(N2CCC[C@H]2C(=O)NCCNC(C)=O)CCCCC1
activity change, negative = inhibition [1]: -3.92%
activity change, negative = inhibition [2]: -6.38%
activity change, negative = inhibition [3]: -3.44%
activity change, negative = inhibition [4]: -9.19%
activity change, negative = inhibition [5]: -4.69%

C[C@H](Oc1cc(-n2cnc3ccc(CN4CCN(C)CC4)cc32)sc1C(N)=O)c1ccccc1C(F)(F)F
activity change, negative = inhibition [1]: -18%
activity change, negative = inhibition [2]: -1.79%
activity change, negative = inhibition [3]: -31.7%
activity change, negative = inhibition [4]: -38.1%
activity change, negative = inhibition [5]: -33.4%

CC1CCC2(NC1)OC1C(O)C3C4CCC5CC(O[C@@H]6O[C@H](CO)[C@@H](O)[C@H](O)[C@H]6O[C@@H]6O[C@@H](C)[C@H](O)[C@@H](O)[C@H]6O)CCC5(C)C4CCC3(C)C1C2C (stereo partly drawn)
activity change, negative = inhibition [1]: -3.32%
activity change, negative = inhibition [2]: -9.5%
activity change, negative = inhibition [3]: 5.52%
activity change, negative = inhibition [4]: -23.4%
activity change, negative = inhibition [5]: -10.1%

Cc1cc(Nc2cc(C)c(C#N)c(NC(C)CCCC(C)(C)O)n2)n[nH]1 (stereo not drawn)
activity change, negative = inhibition [2]: -25.5%
activity change, negative = inhibition [4]: -31.1%
activity change, negative = inhibition [5]: -45.7%

COCc1ccc(C(=O)NCc2cc(C)cc3c(C)c(C)[nH]c23)o1
activity change, negative = inhibition [1]: -16.5%
activity change, negative = inhibition [2]: -10.2%
activity change, negative = inhibition [3]: -10.6%
activity change, negative = inhibition [4]: -10.9%
activity change, negative = inhibition [5]: -9.39%

CCCN1C(=O)c2c(C(=O)NCCc3ccc(C)cc3)ncn2CC1(C)C(=O)NCc1ccc(F)cc1 (stereo not drawn)
activity change, negative = inhibition [1]: 1.76%
activity change, negative = inhibition [2]: 0.639%
activity change, negative = inhibition [3]: 5.1%
activity change, negative = inhibition [4]: 5.52%
activity change, negative = inhibition [5]: 5.77%

C[C@H](CN(C)C)Oc1nc(Nc2cc3cccc(Cl)c3cn2)cnc1C#N
activity change, negative = inhibition [1]: -39.3%
activity change, negative = inhibition [2]: 7.7%
activity change, negative = inhibition [3]: -1.13%
activity change, negative = inhibition [4]: -14.1%
activity change, negative = inhibition [5]: -20.2%

O=C(NCC(F)(F)F)c1cn2cc(-c3ccc(C(F)(F)F)cc3)sc2n1
activity change, negative = inhibition [1]: -2.37%
activity change, negative = inhibition [2]: -7.07%
activity change, negative = inhibition [3]: -2.02%
activity change, negative = inhibition [4]: -8.24%
activity change, negative = inhibition [5]: -4.41%

Cc1ccc(CCNC(=O)c2ccc3c(=O)[nH]c4c(C(=O)NC5CCCC5)sc(=S)n4c3c2)cc1
activity change, negative = inhibition [1]: -9.78%
activity change, negative = inhibition [2]: 2.66%
activity change, negative = inhibition [3]: -6.89%
activity change, negative = inhibition [4]: -19.1%
activity change, negative = inhibition [5]: -23.1%

O=C(CSc1nnc2n(Cc3ccc(F)cc3)c(=O)c3ccccc3n12)Nc1ccc(F)cc1F
activity change, negative = inhibition [1]: 5.62%
activity change, negative = inhibition [2]: 1.21%
activity change, negative = inhibition [3]: 12.7%
activity change, negative = inhibition [4]: 4.64%
activity change, negative = inhibition [5]: 9.68%

C[C@H](NC(c1cccc(C[P+](=O)O)c1)[C@H](C)O)c1ccc(Cl)c(Cl)c1 (stereo partly drawn)
activity change, negative = inhibition [1]: 3.91%
activity change, negative = inhibition [2]: 7.03%
activity change, negative = inhibition [3]: 8.97%
activity change, negative = inhibition [4]: -7.61%
activity change, negative = inhibition [5]: 5.87%

COC(=O)c1ncn2c1C(=O)N(Cc1cccc(Cl)c1)C(C)(C(=O)NC1CCCC1)C2 (stereo not drawn)
activity change, negative = inhibition [1]: -1.06%
activity change, negative = inhibition [2]: 4.23%
activity change, negative = inhibition [3]: 2.54%
activity change, negative = inhibition [4]: 11.1%
activity change, negative = inhibition [5]: -2.17%

CCC(C)N1C(=O)c2cc3sccc3n2CC1(C)C(=O)NC1CCCCCC1 (stereo not drawn)
activity change, negative = inhibition [1]: 3.49%
activity change, negative = inhibition [2]: -6.15%
activity change, negative = inhibition [3]: 9.74%
activity change, negative = inhibition [4]: 6.65%
activity change, negative = inhibition [5]: 3.75%

COCCn1c2c(c(=O)n1-c1ccccc1)CCN(C(=O)c1cccc(C#N)c1)C2
activity change, negative = inhibition [1]: -6.74%
activity change, negative = inhibition [2]: -16.4%
activity change, negative = inhibition [3]: -3.69%
activity change, negative = inhibition [4]: -14.8%
activity change, negative = inhibition [5]: -4.14%

Cc1cccc(Cn2nc3n(C(C)C)c(=O)c4ccc(C(=O)NC5CCCC5)cc4n3c2=O)c1
activity change, negative = inhibition [1]: -0.08%
activity change, negative = inhibition [2]: 0.028%
activity change, negative = inhibition [3]: 4.09%
activity change, negative = inhibition [4]: -1.49%
activity change, negative = inhibition [5]: -3.14%

Cc1ccc(C(=O)Cn2nc3n(CCc4ccccc4)c(=O)c4ccccc4n3c2=O)cc1
activity change, negative = inhibition [1]: 2.94%
activity change, negative = inhibition [2]: 0%
activity change, negative = inhibition [3]: 5.06%
activity change, negative = inhibition [4]: 0.587%
activity change, negative = inhibition [5]: 0.308%

COc1ccc(N2CCN(C(=O)c3ccc4c(=O)nc5c(-c6ccc(F)cc6)n[nH]n5c4c3)CC2)cc1
activity change, negative = inhibition [1]: -8.61%
activity change, negative = inhibition [2]: 2.74%
activity change, negative = inhibition [3]: -2.4%
activity change, negative = inhibition [4]: -5.88%
activity change, negative = inhibition [5]: -6.69%

CCOC(=O)N1CCC(=C2c3ccc(Cl)cc3CCc3cccnc32)CC1
activity change, negative = inhibition [1]: -7.56%
activity change, negative = inhibition [2]: 13.5%
activity change, negative = inhibition [3]: 0.325%
activity change, negative = inhibition [4]: -9.41%
activity change, negative = inhibition [5]: 9.51%

C/C=C(/C)C(=O)O[C@H]1C[C@]2(C)O[C@@H]2[C@@H](OC(C)=O)[C@@]2(C)CC[C@@](O)(C(C)C)[C@H]12
activity change, negative = inhibition [1]: 2.51%
activity change, negative = inhibition [2]: 1.6%
activity change, negative = inhibition [3]: 3.69%
activity change, negative = inhibition [4]: -9.58%
activity change, negative = inhibition [5]: 1.63%

COCCCN1CC2(CCN(C(=O)CCn3cc(C)cn3)CC2)CC1=O
activity change, negative = inhibition [1]: -3.93%
activity change, negative = inhibition [2]: -7.83%
activity change, negative = inhibition [3]: -2.06%
activity change, negative = inhibition [4]: -6.53%
activity change, negative = inhibition [5]: -6.03%

O=C(NC1CCCCC1)N[C@H]1CO[C@H]2[C@@H]1OC[C@H]2O
activity change, negative = inhibition [1]: 0.701%
activity change, negative = inhibition [2]: -4.47%
activity change, negative = inhibition [3]: 1.14%
activity change, negative = inhibition [4]: -3.11%
activity change, negative = inhibition [5]: -7.87%

O=C(Nc1ccc(F)c(C(F)(F)F)c1)Nc1nnc(-c2ccncc2)s1
activity change, negative = inhibition [1]: -14.1%
activity change, negative = inhibition [2]: -37.7%
activity change, negative = inhibition [3]: -4.59%
activity change, negative = inhibition [4]: -45.5%
activity change, negative = inhibition [5]: -14.9%

O=C(NCc1ccccc1F)c1ccc2c(=O)nc3c(-c4ccccc4)n[nH]n3c2c1
activity change, negative = inhibition [1]: -20.9%
activity change, negative = inhibition [2]: 1.06%
activity change, negative = inhibition [3]: 3.94%
activity change, negative = inhibition [4]: 1.17%
activity change, negative = inhibition [5]: -1.98%

O=[S+]([O-])(Nc1ccccc1)c1ccc2c(c1)OCCN(Cc1cocn1)C2
activity change, negative = inhibition [1]: -1.68%
activity change, negative = inhibition [2]: 0.511%
activity change, negative = inhibition [3]: 2.1%
activity change, negative = inhibition [4]: -6.23%
activity change, negative = inhibition [5]: -2.14%

CCC(C(=O)NCc1ccccc1Cl)n1ccc2cc(S(=O)(=O)N3CCCCC3)ccc21 (stereo not drawn)
activity change, negative = inhibition [1]: 1.21%
activity change, negative = inhibition [2]: 0%
activity change, negative = inhibition [3]: -1.29%
activity change, negative = inhibition [4]: 0.784%
activity change, negative = inhibition [5]: 1.49%

Cn1c(=O)c2ccc(C(=O)NC3CCCCC3)cc2n2c(SCC(=O)NC3CCCC3)nnc12
activity change, negative = inhibition [1]: 4.03%
activity change, negative = inhibition [2]: 3.1%
activity change, negative = inhibition [3]: 4.71%
activity change, negative = inhibition [4]: 8.18%
activity change, negative = inhibition [5]: 7.58%

CCCn1c(=O)c2ccccc2n2c(=O)n(CC(=O)Nc3ccccc3OC)nc12
activity change, negative = inhibition [1]: 3.98%
activity change, negative = inhibition [2]: 0%
activity change, negative = inhibition [3]: 9.52%
activity change, negative = inhibition [4]: 2.31%
activity change, negative = inhibition [5]: 5.11%

CC(C)CCN1C(=O)c2ccc(-c3ccccc3)n2CC1(C)C(=O)NC1CCC(C)CC1 (stereo not drawn)
activity change, negative = inhibition [1]: 7.75%
activity change, negative = inhibition [2]: 0.69%
activity change, negative = inhibition [3]: 3.48%
activity change, negative = inhibition [4]: 1.88%
activity change, negative = inhibition [5]: 5.92%
